We go through 78 molecules from the supplement of paper PMC8183993.

Where a name gives a salt, the structure may show the parent alone. ± gives the standard deviation of the averaged measurements. Whole data set: some 3,200 compounds, median “nuclei count (viability) relative to DMSO” near 99, cut for the lowest 2% near 16. Some of the results follow.

The test system of this test is U2OS. The experiment in a line: nuclei count (viability) relative to DMSO (% of DMSO); higher = more viable cells. As to conditions: 10 µM; 24 h. The method, then:
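Primary image-based screen in U2OS cells: compounds at 10 uM for 24 h, then a 1 h o-propargyl-puromycin (OPP) pulse, click labelling, and high-throughput microscopy. Mean cytoplasmic OPP intensity and nuclei count were normalised to DMSO wells within each plate (DMSO = 100) and averaged over triplicate plates.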
As for `CC(Cc1ccc(O)c(O)c1)(NN)C(=O)O` [(S)-(-)-Carbidopa], the nuclei count was found to be 103.
As for `CCCCCCCCCCCCCCCCOP(=O)([O-])OCC[N+](C)(C)C` [Miltefosine (Hexadecylphosphocholine)], the figure is 103.
As for `Cc1ccsc1/C=C/C1=NCCCN1C` [Morantel tartrate], the figure is 104.
Consider `CN(C)c1ccc(O)c2c1C[C@H]1C[C@H]3[C@H](N(C)C)C(O)=C(C(N)=O)C(=O)[C@@]3(O)C(O)=C1C2=O` [Minocycline hydrochloride], for which the nuclei count worked out at 101.
In the case of `CCN(CC)CCNc1ccc(CO)c2sc3ccccc3c(=O)c12` [Hycanthone] it was 49.
As for `CNC(C)CCC=C(C)C` (stereo not drawn) [Isometheptene mucate], the figure is 112; as for `O=C(COc1ccc(Cl)cc1)N1CCN(Cc2ccc3c(c2)OCO3)CC1` [Fipexide hydrochloride], 106; as for `CN(Cc1cnc2nc(N)nc(N)c2n1)c1ccc(C(=O)N[C@@H](CCC(=O)O)C(=O)O)cc1` (racemic) [Amethopterin (R,S)], 95.2.
For `CN(Cc1cnc2nc(N)nc(N)c2n1)c1ccc(C(=O)N[C@@H](CCC(=O)O)C(=O)O)cc1` [Methotrexate], the nuclei count was 98.6 ± 7.
As for `Nc1nc(NC2CC2)c2ncn([C@H]3C=C[C@@H](CO)C3)c2n1` [Abacavir Sulfate], the figure is 102.
In the case of `CCOC(=O)c1ccc(N)cc1` [Benzocaine] it was 111; in that of `C[C@H]1[C@H](C)CC[C@]2(C(=O)O)CC[C@]3(C)C(=CC[C@@H]4[C@@]5(C)C[C@@H](O)[C@H](O)[C@@](C)(CO)[C@@H]5CC[C@]43C)[C@H]12` [Asiatic acid], 92.3 ± 11.
Molecule `CCN(CC)CCOC(=O)C(c1ccccc1)c1ccccc1` [Adiphenine hydrochloride] registered a nuclei count of 102.
As for `OC(CCCN1CCCCC1)(c1ccccc1)c1ccccc1` [Diphenidol hydrochloride], the figure is 99.3.
In the case of `CC1c2ccccc2CN1CC1=NCCN1` (stereo not drawn) it was 95.3; in that of `CCCCCCCCCCCCc1ccc(S(=O)(=O)Nc2nncs2)cc1`, 102 ± 4.7; in that of `CN1CCN(c2c(F)cc3c(=O)c(C(=O)O)cn4c3c2OCN4C)CC1` [Marbofloxacin], 105.
In the case of `Cn1cccc1/C=C1\C(=O)NC(=O)c2ccccc21` it was 102.
Molecule `COc1cc2c(CCNC(C)=O)c[nH]c2cc1Cl` [6-Chloromelatonin] yielded a nuclei count of 94.1.
`Cc1ccc(S(=O)(=O)NC(=O)NN2CCCCCC2)cc1` [Tolazamide] displayed a nuclei count of 102 ± 9.2.
In the case of `C=CC(C)(C)c1cc(/C=C/C(=O)c2ccc(O)cc2)c(OC)cc1O` [Licochalcone A] it was 72.1; in that of `C[C@]12CC[C@@H]3c4ccc(OS(=O)(=O)O)cc4CC[C@H]3[C@@H]1CCC2=O` [Estropipate], 105; in that of `CCCCNc1c(C(=O)OCC)c(C)nc2c1cnn2CC` [Tracazolate hydrochloride], 102 ± 2.8.
In the case of `COc1cc(NC(C)CCCN)c2ncccc2c1` (stereo not drawn) [Primaquine diphosphate] it was 15.7.
Take `CC(C)c1ccc(Cn2ccc3c4c(N)nc(NC5CC5)nc4ccc32)cc1`: the nuclei count came to 29.3.
`CCCCC1(COC(=O)CCC(=O)O)C(=O)N(c2ccccc2)N(c2ccccc2)C1=O` [Suxibuzone]: the nuclei count came to 99.
As for `COc1cc(-c2ccc(=O)[nH]n2)ccc1OC(F)F` [Zardaverine], the figure is 102 ± 11; as for `Cc1ccc([N+](=O)[O-])cc1S(=O)(=O)N(C)/N=C/c1cnc2ccc(Br)cn12`, 34.4.
In turn, `CCCCCCCc1ccc(CCc2cccc(O)c2C(=O)O)cc1` yielded a nuclei count of 7.35.
In the case of `c1ccc(COCCCc2c[nH]cn2)cc1` [Proxyfan Oxalate] it was 104.
`CC[N+](CC)(CC)CC(=O)Nc1c(C)cccc1C` [QX 314 chloride] came in with a nuclei count of 104.
As for `CC[N+](CC)(CC)CC(=O)Nc1c(C)cccc1C` [QX-314 bromide], the figure is 104; as for `CC[N+](CC)(CC)CC(=O)Nc1c(C)cccc1C` [QX 314 bromide], 97.5; as for `Cc1cc(-c2ccccc2)nnc1NCCN1CCOCC1` [Minaprine dihydrochloride], 102.
As for `NC(N)=Nc1nc(CSCC/C(N)=N/S(N)(=O)=O)cs1` [Famotidine], the figure is 105; as for `NC(N)=Nc1nc(CSCC/C(N)=N/S(N)(=O)=O)cs1` [Famotidine (Pepcid)], 102.
On to `Cl.N=C(N)NCCC[C@H](N)C(=O)O` [L-Arginine HCl], for which the nuclei count is 91.1.
In turn, `CC1=C(/C=C/C(C)=C/C=C/C(C)=C\C(=O)O)C(C)(C)CCC1` [13-cis Retinoic acid] showed a nuclei count of 106.
In the case of `CC1=C(/C=C/C(C)=C/C=C/C(C)=C\C(=O)O)C(C)(C)CCC1` [Isotretinoin] it was 96.6.
As for `CC/C(=C(/CC)c1ccc(O)cc1)c1ccc(O)cc1` [Diethylstilbestrol], the figure is 97.9.
In turn, `CSc1ccc2c(c1)N(CCC1CCCCN1C)c1ccccc1S2` (stereo not drawn) [Thioridazine hydrochloride] gave a nuclei count of 81.1.
For `CC(C)(Sc1ccc(CCN(CCCCC2CCCCC2)C(=O)NC2CCCCC2)cc1)C(=O)O`, the nuclei count is 99.4 ± 3.
`CN(C)[C@@H]1C(O)=C(C(N)=O)C(=O)[C@@]2(O)C(O)=C3C(=O)c4c(O)cccc4[C@@](C)(O)[C@H]3[C@H](O)[C@@H]12` [Oxytetracycline (Terramycin)] yielded a nuclei count of 99.7.
As for `CN(C)[C@@H]1C(O)=C(C(N)=O)C(=O)[C@@]2(O)C(O)=C3C(=O)c4c(O)cccc4[C@@](C)(O)[C@H]3[C@H](O)[C@@H]12` [Oxytetracycline dihydrate], the figure is 105 ± 1.9; as for `COc1cc(OC)c(/C=C/S(=O)(=O)Cc2ccc(OC)c(NCC(=O)O)c2)c(OC)c1`, 16.3 ± 1.4; as for `OC(CN1CCN(c2cccc(Cl)c2)CC1)C(c1ccccc1)c1ccccc1` (stereo not drawn), 98.1.
As for `COc1ccc(-c2ccc3c(N4CCOCC4)nc(N4C[C@@H](C)O[C@@H](C)C4)nc3n2)cc1CO`, the figure is 90.
`CC(=O)[C@H]1CC[C@H]2[C@@H]3CC=C4C[C@@H](O)CC[C@]4(C)[C@H]3CC[C@]12C` [Pregnenolone]: the nuclei count amounted to 103 ± 4.8.
The molecule `COc1ccc(CC2c3cc(OC)c(OC)cc3CC[N+]2(C)CCC(=O)OCCCCCOC(=O)CC[N+]2(C)CCc3cc(OC)c(OC)cc3C2Cc2ccc(OC)c(OC)c2)cc1OC` (stereo not drawn) [Atracurium besylate] registered a nuclei count of 83.9.
As for `CN(C)c1ccc(C(=C2C=CC(=[N+](C)C)C=C2)c2ccc(N(C)C)cc2)cc1` [Crystal violet], the figure is 13.
The molecule `Oc1cc2c(cc1O)[C@@H]1c3ccc(O)c(O)c3OC[C@]1(O)C2` [Hematoxylin (Hydroxybrazilin)] returned a nuclei count of 86.
As for `CC(C(=O)O)c1ccc2c(c1)CC(=O)c1ccccc1S2` (stereo not drawn) [Zaltoprofen], the figure is 107.
Molecule `C[C@@H](O)[C@H]1C(=O)N2C(C(=O)[O-])=C(SC3Cn4cnc[n+]4C3)[C@H](C)[C@H]12` (stereo partly drawn) [Biapenem] showed a nuclei count of 108.
As for `Cc1nc(-c2ccc(OCC(C)C)c(C#N)c2)sc1C(=O)O` [Febuxostat (Uloric)], the nuclei count worked out at 109.
As for `O=C1C=CC(=O)C2=C1C1c3ccccc3C2c2ccccc21`, the nuclei count was determined as 101.
As for `CC(/C=C/C(=O)NO)=C\[C@@H](C)C(=O)c1ccc(N(C)C)cc1` [Trichostatin A], the figure is 30.6 ± 2.3; as for `Cc1cc(Nc2nc(N[C@@H](C)c3ccc(F)cc3)c(C#N)cc2F)n[nH]1`, 45.7; as for `Cc1nc(Nc2ncc(C(=O)Nc3c(C)cccc3Cl)s2)cc(N2CCN(CCO)CC2)n1`, 58.7.
Turning to `CCN(CCO)CCCC(C)Nc1ccnc2cc(Cl)ccc12` (stereo not drawn) [Hydroxychloroquine sulfate], the nuclei count was 96.1.
As for `CCN(CCO)CCCC(C)Nc1ccnc2cc(Cl)ccc12` (stereo not drawn) [Hydroxychloroquine], the figure is 85.7.
The molecule `CCOC(=O)c1c(CSc2ccccc2)n(C)c2cc(Br)c(O)c(CN(C)C)c12` [Arbidol HCl] displayed a nuclei count of 95.6.
`CCN1CCN(Cc2ccc(-c3cc4c(N[C@H](C)c5ccccc5)ncnc4[nH]3)cc2)CC1` displayed a nuclei count of 48.2 ± 8.2.
In the case of `C=C1C(=O)O[C@@H](CCC)[C@@H]1C(=O)O` [Butyrolactone 3], the nuclei count is 111.
`CCOC(=O)NNc1nncc2ccccc12` [Todralazine hydrochloride] showed a nuclei count of 91.5.
In the case of `CCCCN1CCCCC1C(=O)Nc1c(C)cccc1C` (stereo not drawn) [Bupivacaine hydrochloride] it was 98.1; in that of `CC(COc1ccccc1)NC(C)C(O)c1ccc(O)cc1` (stereo not drawn) [Isoxsuprine hydrochloride], 104; in that of `CC(C)(C)c1ccc(C(O)CCCN2CCC(C(O)(c3ccccc3)c3ccccc3)CC2)cc1` (stereo not drawn) [Terfenadine], 103.
As to `C=C1/C(=C\C=C2/CCC[C@]3(C)[C@@H]([C@H](C)/C=C/[C@H](C)C(C)C)CC[C@@H]23)C[C@@H](O)C[C@@H]1O` [Doxercalciferol (Hectorol)], the nuclei count was found to be 93.5.
As for `C[C@H]1O[C@@H](Oc2c(-c3cc(O)c(O)c(O)c3)oc3cc(O)cc(O)c3c2=O)[C@@H](O)[C@@H](O)[C@@H]1O` [Myricitrin (Myricitrine)], the figure is 102; as for `Cc1ccc2c(=O)c3cccc(CC(=O)O)c3oc2c1C`, 110.
In the case of `Nc1ncnc2c1ncn2C1CCCO1` (stereo not drawn) it was 95.9.
As for `Nc1ccn([C@@H]2O[C@H](CO)[C@@H](O)[C@@H]2O)c(=O)n1` [Cytarabine], the nuclei count came out at 56.2 ± 2.
Turning to `O=S1(=O)c2cccc3cccc(c23)N1CCCN1CCN(c2ccc(F)cc2)CC1` [Fananserin], the nuclei count worked out at 104.
In the case of `Cc1[nH]c2ccccc2c1CCNCc1ccc(/C=C/C(=O)NO)cc1` [Panobinostat] it was 23.7; in that of `Nc1ccc(S(=O)(=O)Nc2ccccn2)cc1` [Sulfapyridine], 108; in that of `O=C(O)[C@H]1O[C@@H](Oc2cc3oc(-c4ccccc4)cc(=O)c3c(O)c2O)[C@H](O)[C@@H](O)[C@@H]1O` [Baicalin], 101.
Regarding `Cn1cc(-c2ccncc2)c(-c2ccc(OCc3ccc4ccccc4n3)cc2)n1`, the nuclei count is 98.3.
The molecule `C[N+](C)(C)[C@@H](Cc1c[nH]c(=S)[nH]1)C(=O)[O-]` [L-Ergothioneine] gave a nuclei count of 99.
